According to article PMC11840744:
Results are given in words; binding and its absence hold for the method and conditions named. Binding seen in cells or lysates may run through a third protein. Some binding calls cover weakened binding; strength is not graded here. Blank lines part the entries; values can stand above or below the substance they belong to.

The chains behind the UniProt entries cited, without tags or fusion partners.
UniProt Q6GQQ9: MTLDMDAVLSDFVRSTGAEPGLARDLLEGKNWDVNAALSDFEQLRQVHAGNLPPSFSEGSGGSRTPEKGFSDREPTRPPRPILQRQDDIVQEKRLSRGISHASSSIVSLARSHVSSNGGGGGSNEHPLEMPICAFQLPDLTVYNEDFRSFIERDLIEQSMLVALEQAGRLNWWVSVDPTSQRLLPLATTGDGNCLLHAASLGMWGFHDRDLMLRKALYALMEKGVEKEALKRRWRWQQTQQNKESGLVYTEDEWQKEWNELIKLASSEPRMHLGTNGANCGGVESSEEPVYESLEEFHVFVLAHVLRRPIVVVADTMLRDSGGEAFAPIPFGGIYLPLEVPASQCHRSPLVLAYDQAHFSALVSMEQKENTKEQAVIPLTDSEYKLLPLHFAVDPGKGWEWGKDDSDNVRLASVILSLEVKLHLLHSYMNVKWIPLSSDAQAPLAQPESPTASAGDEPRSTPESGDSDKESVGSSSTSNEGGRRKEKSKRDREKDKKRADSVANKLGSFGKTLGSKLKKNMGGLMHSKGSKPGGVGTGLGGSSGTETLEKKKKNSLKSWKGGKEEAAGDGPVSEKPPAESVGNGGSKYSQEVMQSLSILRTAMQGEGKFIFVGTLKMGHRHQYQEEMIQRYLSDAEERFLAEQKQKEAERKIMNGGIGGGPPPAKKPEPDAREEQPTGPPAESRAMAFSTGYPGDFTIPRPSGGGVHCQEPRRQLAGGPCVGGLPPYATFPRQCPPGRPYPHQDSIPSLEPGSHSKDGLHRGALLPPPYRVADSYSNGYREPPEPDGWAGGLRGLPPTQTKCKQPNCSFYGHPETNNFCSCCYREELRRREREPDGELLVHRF
UniProt Q00987: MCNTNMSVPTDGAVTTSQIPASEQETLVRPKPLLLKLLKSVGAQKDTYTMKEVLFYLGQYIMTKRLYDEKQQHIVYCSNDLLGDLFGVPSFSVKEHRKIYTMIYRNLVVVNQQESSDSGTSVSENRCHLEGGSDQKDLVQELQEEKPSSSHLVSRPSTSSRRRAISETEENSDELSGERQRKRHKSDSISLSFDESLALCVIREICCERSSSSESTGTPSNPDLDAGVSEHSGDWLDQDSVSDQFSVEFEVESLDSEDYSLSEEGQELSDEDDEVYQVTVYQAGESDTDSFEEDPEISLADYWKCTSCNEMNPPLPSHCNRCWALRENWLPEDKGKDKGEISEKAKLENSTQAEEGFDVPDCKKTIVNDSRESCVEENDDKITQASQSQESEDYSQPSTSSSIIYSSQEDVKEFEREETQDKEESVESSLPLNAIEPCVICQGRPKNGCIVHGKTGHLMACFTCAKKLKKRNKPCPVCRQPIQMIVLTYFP

Columns and labels:
[1] = target: endogenous mutant p53 R249S of MHCC-97H cells (human (endogenous in MHCC-97H)) (UniProt P04637); assay: co-IP; endogenous proteins in lysates of HepG2, MHCC-97H or Huh7 cells; IP and Western blot; IP buffer 20 mM Tris, 150 mM NaCl, pH 7.8, 0.5% NP-40
[2] = target: endogenous p53 (wildtype) (human (endogenous in HEK293T and HepG2)) (UniProt P04637); assay: as above
[3] = target: Flag-tagged wildtype p53 (UniProt P04637); assay: co-IP; HEK293T cells transfected with Flag-OTUD7B or Flag-p53; IP and immunoblotting with anti-Flag, p53 and OTUD7B antibodies; endogenous partner detected; IP buffer 20 mM Tris, 150 mM NaCl, pH 7.8, 0.5% NP-40
[4] = target: endogenous OTUD7B (human (endogenous in HEK293T, HepG2, MHCC-97H and Huh7)) (UniProt Q6GQQ9); assay: co-IP; endogenous proteins in lysates of HepG2, MHCC-97H or Huh7 cells; IP and Western blot; IP buffer 20 mM Tris, 150 mM NaCl, pH 7.8, 0.5% NP-40
[5] = target: Flag-tagged OTUD7B (UniProt Q6GQQ9); assay: co-IP; HEK293T cells transfected with Flag-OTUD7B or Flag-p53; IP and immunoblotting with anti-Flag, p53 and OTUD7B antibodies; endogenous partner detected; IP buffer 20 mM Tris, 150 mM NaCl, pH 7.8, 0.5% NP-40
[6] = target: Flag-p53-G279E (UniProt P04637); assay: co-IP; HEK293T cells transfected with HA-OTUD7B and Flag-p53 constructs; lysates subjected to IP with anti-Flag antibodies, Western blot of input and IP; IP buffer 20 mM Tris, 150 mM NaCl, pH 7.8, 0.5% NP-40
[7] = target: Flag-tagged wildtype p53 (UniProt P04637); assay: as above
[8] = target: Flag-p53 construct lacking the TAD (UniProt P04637); assay: as above

binding [1]: binds | binding [2]: binds | binding [3]: binds
Substance: endogenous OTUD7B (from UniProt Q6GQQ9 1-843) (enzyme)

binding [4]: no binding
Substance: endogenous Mdm2 (from UniProt Q00987 1-491) (enzyme)

binding [4]: binds | binding [5]: binds
Substance: endogenous p53 (wildtype) (from UniProt P04637 1-393)

binding [6]: binds | binding [7]: binds | binding [8]: binds
Substance: HA-tagged OTUD7B (from UniProt Q6GQQ9 1-843) (enzyme)
